Among all 310,000 compounds or so, about 14,000 (4.5%) showed an effect of 50% or more. The effect is printed as a negative number. The list shows a part of the results.
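Also: peak tail current of the secondary pulse compared with the same well before compound.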

In the experiment the target is human ether-à-go-go-related gene (hERG) potassium channel (human, UniProt Q12809). As to the kind of experiment: primary screen, population patch clamp on CHO cells stably expressing hERG.
Chain of human ether-à-go-go-related gene (hERG) potassium channel (Q12809 whole entry, looked up): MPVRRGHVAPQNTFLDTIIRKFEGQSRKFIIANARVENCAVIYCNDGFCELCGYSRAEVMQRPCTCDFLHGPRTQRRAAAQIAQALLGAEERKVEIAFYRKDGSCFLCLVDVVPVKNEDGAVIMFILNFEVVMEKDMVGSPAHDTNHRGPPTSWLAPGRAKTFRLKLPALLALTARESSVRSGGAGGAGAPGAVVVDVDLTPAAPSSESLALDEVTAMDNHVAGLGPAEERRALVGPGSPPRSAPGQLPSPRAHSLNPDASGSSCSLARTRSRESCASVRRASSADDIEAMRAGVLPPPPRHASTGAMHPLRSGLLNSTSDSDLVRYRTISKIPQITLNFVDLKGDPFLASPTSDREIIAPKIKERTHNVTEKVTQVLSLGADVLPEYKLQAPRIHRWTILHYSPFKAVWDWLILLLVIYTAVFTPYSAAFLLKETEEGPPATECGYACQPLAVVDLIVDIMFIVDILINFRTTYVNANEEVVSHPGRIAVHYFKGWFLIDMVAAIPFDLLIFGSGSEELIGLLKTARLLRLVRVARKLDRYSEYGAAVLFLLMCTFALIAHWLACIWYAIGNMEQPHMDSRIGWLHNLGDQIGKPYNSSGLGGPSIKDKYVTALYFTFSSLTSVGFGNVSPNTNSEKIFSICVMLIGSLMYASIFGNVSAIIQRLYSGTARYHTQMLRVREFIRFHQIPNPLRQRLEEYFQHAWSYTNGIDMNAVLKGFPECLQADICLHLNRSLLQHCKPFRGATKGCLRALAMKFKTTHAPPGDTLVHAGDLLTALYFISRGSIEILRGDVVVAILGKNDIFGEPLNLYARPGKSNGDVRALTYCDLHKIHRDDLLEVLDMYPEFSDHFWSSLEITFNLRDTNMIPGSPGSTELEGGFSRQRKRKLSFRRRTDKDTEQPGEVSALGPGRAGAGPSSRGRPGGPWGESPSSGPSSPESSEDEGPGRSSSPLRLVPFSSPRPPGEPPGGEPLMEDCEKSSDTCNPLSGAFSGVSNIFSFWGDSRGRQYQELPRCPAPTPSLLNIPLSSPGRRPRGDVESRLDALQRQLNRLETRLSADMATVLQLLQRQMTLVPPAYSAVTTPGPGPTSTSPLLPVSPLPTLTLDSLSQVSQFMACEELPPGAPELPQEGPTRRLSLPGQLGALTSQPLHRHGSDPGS
For the compound `CC12CC3CC(C)(C1)CC(C(=O)NC(=S)N1CCOCC1)(C3)C2`, the “hERG current change (%, negative = inhibition) at 10uM” value was -4.47%.

With `O=C(CN1CCSCC1)N/N=C/c1ccc(F)cc1`, the “hERG current change (%, negative = inhibition) at 10uM” value is given as -16.3%.

As to `Fc1ccc(/C=N/NC(=S)Nc2cccnc2)cc1F`, the “hERG current change (%, negative = inhibition) at 10uM” value amounted to 7.07%.

On to `CCCCOc1ccc(C(=O)Nc2ccc(N3CCN(C(=O)C(C)C)CC3)cc2)cc1`, for which the “hERG current change (%, negative = inhibition) at 10uM” value is 6.91%.

For `COc1ccc(-n2c(SCC(=O)NCCC(C)C)nc3ccsc3c2=O)cc1`, the “hERG current change (%, negative = inhibition) at 10uM” value is recorded as -11.3%.

As to `O=C1CSC(c2ccccn2)N1c1ccc2ccccc2c1` (stereo not shown), the “hERG current change (%, negative = inhibition) at 10uM” value turned out to be 4.18%.

Turning to `N#Cc1ccc(Nc2ccccc2)c(N)c1`, the “hERG current change (%, negative = inhibition) at 10uM” value is recorded as -12.6%.

Turning to `O=C(O)C[C@H]1c2ccc(C(F)(F)F)cc2S(=O)(=O)N1Cc1ccccc1`, the “hERG current change (%, negative = inhibition) at 10uM” value is listed as 23.4%.

For the compound `CC1=C(C(=O)NCCc2ccc(C)cc2)C2(CCC(C)CC2)OC1=O` (stereo not shown), the “hERG current change (%, negative = inhibition) at 10uM” value worked out at 8.64%.

With `Cn1nc([N+](=O)[O-])nc1Oc1ccc(C(C)(C)C)cc1`, the “hERG current change (%, negative = inhibition) at 10uM” value is 2.92%.

On to `C/C(=N\NC(=O)c1ccncc1)c1cc2ccccc2oc1=O`, for which the “hERG current change (%, negative = inhibition) at 10uM” value is listed as -1.92%.

On to `CCOCCCNC(=O)CN1C2CCC1CC(O)(c1ccc(OC)cc1)C2` (stereo not shown), for which the “hERG current change (%, negative = inhibition) at 10uM” value was -36.4%.

For the compound `COc1ccc(/C=C/C(=O)c2ccc3c4c(cccc24)CC3)cc1OC`, the “hERG current change (%, negative = inhibition) at 10uM” value amounted to 20.8%.

Take `O=C(Cn1ncn2nc(-c3ccccc3)cc2c1=O)NCc1ccccn1`: the “hERG current change (%, negative = inhibition) at 10uM” value is given as 17.2%.

On to `O=C1CC(Cc2ccccc2)C(=O)N1Cc1ccco1` (stereo not shown), for which the “hERG current change (%, negative = inhibition) at 10uM” value came to 2.06%.

As to `CC(=O)N1N=C(c2ccc3nccnc3c2)CC1c1ccccc1` (stereo not shown), the “hERG current change (%, negative = inhibition) at 10uM” value is listed as -34.9%.

For the compound `CCSc1nc2c(c(=O)[nH]c(=O)n2C)n1C`, the “hERG current change (%, negative = inhibition) at 10uM” value amounted to 19.1%.

Turning to `Cc1cccc(-n2ncc3c(NNC(=O)c4ccco4)ncnc32)c1`, the “hERG current change (%, negative = inhibition) at 10uM” value was 16.7%.

Turning to `CC(=O)c1cccc(NC(=O)c2ccccc2-c2ccccc2C(=O)O)c1`, the “hERG current change (%, negative = inhibition) at 10uM” value was 16.5%.

In the case of `O=C(NC(=S)N(Cc1ccccc1)c1ccccn1)C1CCCCC1`, the “hERG current change (%, negative = inhibition) at 10uM” value was -1.24%.

Consider `O=C(Nc1cccnc1)c1cccc(S(=O)(=O)N2CCOCC2)c1`, for which the “hERG current change (%, negative = inhibition) at 10uM” value came out at 4.06%.

In the case of `O=C(COC(=O)CCC(=O)c1ccc(Cl)cc1)NCC1CCCO1` (stereo not shown), the “hERG current change (%, negative = inhibition) at 10uM” value is 7.58%.

In the case of `Cn1c(C23CC4CC(CC(C4)C2)C3)n[nH]c1=S`, the “hERG current change (%, negative = inhibition) at 10uM” value worked out at 15.2%.

As to `O=c1c(C(c2ccccc2)c2c(O)sc3ccccc3c2=O)c(O)sc2ccccc12`, the “hERG current change (%, negative = inhibition) at 10uM” value was -0.509%.

For `Cn1nnc2cc(C(=O)N3CCN(c4ccccc4)CC3)ccc21`, the “hERG current change (%, negative = inhibition) at 10uM” value is -3.95%.

Regarding `COc1ccccc1CNC(=O)CC(C)c1ccccc1` (stereo not shown), the “hERG current change (%, negative = inhibition) at 10uM” value was found to be 4.63%.

Consider `O=C(NNC(=O)C1CC=CCC1C(=O)O)c1cccs1` (stereo not shown), for which the “hERG current change (%, negative = inhibition) at 10uM” value was determined as 16.2%.

In the case of `Cc1ccc(NC(=O)COC(=O)c2ccc([N+](=O)[O-])o2)cc1S(=O)(=O)N1CCCCC1`, the “hERG current change (%, negative = inhibition) at 10uM” value is on record as -13.3%.

As for `C=CCOc1ccccc1CN1CCC(n2nccc2NC(=O)c2ccccc2)CC1`, the “hERG current change (%, negative = inhibition) at 10uM” value is -64.4%.

As to `CCCCn1c(=O)c2c(O)cc(=O)oc2c2ccccc21`, the “hERG current change (%, negative = inhibition) at 10uM” value is given as -13.6%.

In the case of `CC1Sc2ccc(S(=O)(=O)N3CCC(C(=O)N(C)Cc4ccco4)CC3)cc2NC1=O` (stereo not shown), the “hERG current change (%, negative = inhibition) at 10uM” value is listed as -24.7%.

Consider `O=C(NCC1CCCO1)/C(=C\c1ccco1)NC(=O)c1ccc(Cl)cc1` (stereo not shown), for which the “hERG current change (%, negative = inhibition) at 10uM” value is -23.5%.

On to `CCCN1CCOC(CC(=O)Nc2ccc([N+](=O)[O-])cc2)C1=O` (stereo not shown), for which the “hERG current change (%, negative = inhibition) at 10uM” value is -8.4%.

`COc1ccc(OC)c(-c2nnc(SCC(=O)NC3CCCCC3)o2)c1`: the “hERG current change (%, negative = inhibition) at 10uM” value is -59.8%.

As to `Oc1c(Br)cc(Br)cc1CN1CCN(Cc2ccccc2)CC1`, the “hERG current change (%, negative = inhibition) at 10uM” value is -3.14%.

As for `CC(=O)Nc1ccc(NC(=O)CCc2nc3ccccc3c(=O)[nH]2)cc1`, the “hERG current change (%, negative = inhibition) at 10uM” value stood at 14.2%.

Regarding `O=C(N/N=C/c1ccc(O)cc1)c1cccc(C(F)(F)F)c1`, the “hERG current change (%, negative = inhibition) at 10uM” value was -2.89%.

With `CCCOc1ccc(C(C)=O)cc1Cc1c(O)nc(SC)[nH]c1=O`, the “hERG current change (%, negative = inhibition) at 10uM” value was 14.7%.

Regarding `O=C(CSc1nnnn1-c1ccccc1)CC(=O)Nc1ccc(Cl)cc1`, the “hERG current change (%, negative = inhibition) at 10uM” value was -8.59%.

For the compound `CC(=O)c1cc(-c2ccccc2)n(CCC(=O)NC2CCCCCCC2)c1C`, the “hERG current change (%, negative = inhibition) at 10uM” value is recorded as -20.9%.

For the compound `COc1ccccc1C(=O)OCc1ccc2sc(C)nc2c1`, the “hERG current change (%, negative = inhibition) at 10uM” value is -6.03%.

In the case of `O=C(NCCN1CCOCC1)c1ccc(NS(=O)(=O)c2ccccc2)cc1`, the “hERG current change (%, negative = inhibition) at 10uM” value amounted to 12.4%.

As for `Cc1sc(NC(=O)COc2ccccc2)c(C#N)c1C`, the “hERG current change (%, negative = inhibition) at 10uM” value is 8.48%.

Turning to `O=C(c1cc(COc2ccc(F)cc2Cl)on1)N1CC2C[C@@H]3CC1C[C@H](C2)C3`, the “hERG current change (%, negative = inhibition) at 10uM” value came out at 15.7%.

As for `CCc1ccc(CN2CCC(n3nccc3NC(=O)c3ccccc3C)CC2)cc1`, the “hERG current change (%, negative = inhibition) at 10uM” value is reported as -76.2%.

Turning to `O=C(OCc1nnc(-c2ccccc2)o1)c1ccccc1`, the “hERG current change (%, negative = inhibition) at 10uM” value is on record as 21.7%.

Regarding `CCCCN(CC)CCNC(=O)CN1C(=O)COc2ccc(S(=O)(=O)N3CCCC3)cc21`, the “hERG current change (%, negative = inhibition) at 10uM” value is -3.34%.

`O=C(CC1Oc2ccccc2NC1=O)NCCCN1CCCC1=O` (stereo not shown): the “hERG current change (%, negative = inhibition) at 10uM” value is -14%.

`Cc1onc(-c2ccccc2Cl)c1C(=O)N1CCN(c2nc3ccccc3s2)CC1`: the “hERG current change (%, negative = inhibition) at 10uM” value is -20.6%.

As to `CC(=O)N1CCCc2ccc(NS(=O)(=O)c3ccc(C)c(C)c3)cc21`, the “hERG current change (%, negative = inhibition) at 10uM” value is recorded as 0.654%.

As for `COc1ccc(-n2c(=O)c3c4c(sc3n(CC(=O)NC3CCCC3)c2=O)CCCC4)c(OC)c1`, the “hERG current change (%, negative = inhibition) at 10uM” value is listed as -11.1%.

Take `CCOC(=O)COc1cccc2c(=O)n(CC(N)=O)ccc12`: the “hERG current change (%, negative = inhibition) at 10uM” value was found to be 6.7%.

For the compound `Cc1cc(=O)oc2ccc(OCC(=O)O)cc12`, the “hERG current change (%, negative = inhibition) at 10uM” value came out at 16.1%.

Take `CCCCOc1ccccc1C(=O)NCC(=O)O.[Li+]`: the “hERG current change (%, negative = inhibition) at 10uM” value was -0.727%.

Take `O=C(C1CCCO1)N1CCN(S(=O)(=O)c2ccc(F)cc2)CC1` (stereo not shown): the “hERG current change (%, negative = inhibition) at 10uM” value is recorded as 22.5%.

For `O=C1/C(=C/c2c[nH]c3ccccc23)CCC/C1=C\c1c[nH]c2ccccc12`, the “hERG current change (%, negative = inhibition) at 10uM” value is given as -10%.

Turning to `COc1ccc(Cl)c(S(=O)(=O)N2CCCC2)c1`, the “hERG current change (%, negative = inhibition) at 10uM” value was -7.55%.

With `CCOC(=O)C1=C(C)Nc2ncnn2C1/C=C/c1ccccc1` (stereo not shown), the “hERG current change (%, negative = inhibition) at 10uM” value is recorded as -2.68%.
